Sequences with one replicate were seen in a single cluster, so their values are uncertain.

The series relates to ATP. Briefly: switch fluorescence ratio, 500 uM ATP over buffer (Cy3 cluster intensity, sum of 5 cycles each) (fold (ratio)); higher = stronger signal-on switching upon ATP binding; sequences stand for … in TCGTCGGCAGCGTCAGATGTGTATAAGAGACAGTTTTTTTTTTTTTTTTTTTTTTTTT…TC. The note with it: aptamer strand: ATP DNA aptamer (quencher-CACCTGGGGGAGTATTGCGGAGGAAGG + anchor), 100 nM annealed; ATP concentration: 500 uM; one replicate. In short, it runs like this:
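Exposure to 500 uM ATP lasted 15 min at 22 °C before imaging, and a selection-buffer image was taken beforehand, for Cy3-labelled switching-strand clusters on a modified Illumina MiSeq flow-cell annealed to 100 nM quencher-labelled ATP aptamer. Five buffer/ATP cycles were run with NaOH stripping and re-annealing between them. The fluorescence ratio per cluster is summed target-cycle over summed buffer-cycle Cy3 intensity, averaged per switch-domain sequence. Clusters outside 100-1000 RFU were excluded.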

Take TCTCAGGGGG: the switch fluorescence ratio turned out to be 1.01. For ATTGGATGTT, the switch fluorescence ratio came out at 1. As to GGCGATATTG, the switch fluorescence ratio came out at 0.977. As to AGTTGAAGGT, the switch fluorescence ratio is 0.98. As for GCGTGTTATA, the switch fluorescence ratio turned out to be 1.12.

With ATACTGACCG, the switch fluorescence ratio was found to be 1.14. Then CGCGGACGAA, with 1.02; and CCCGATCGGA, with 0.965. The same measure for CGCTGTTTTA: 1.06; for CACTCAAGGT: 1.05. As for AGAAGTCAGG, the switch fluorescence ratio was found to be 1.02. For the sequence CAAGGTTTAG, the switch fluorescence ratio worked out at 0.946. TGTTAGCTGA: the switch fluorescence ratio is 0.975. Take CATGGCGTAA: the switch fluorescence ratio amounted to 0.992. With CGCTTCTGCT, the switch fluorescence ratio turned out to be 0.996.

With CCCGGTCTTG, the switch fluorescence ratio was 0.984.

On to TGGGTACTTG, for which the switch fluorescence ratio came out at 1.01. Consider TTCGGTAACG, for which the switch fluorescence ratio was 1.04. With GTTTTAGTAT, the switch fluorescence ratio came out at 1.03. As to AGATGCGAGC, the switch fluorescence ratio is 1.

For the sequence TGAAGTAGTG, the switch fluorescence ratio was found to be 0.975. For the sequence CGACTGGGAT, the switch fluorescence ratio came to 1.18. The same measure for ATTTTCGGGA: 0.993. As for AGATCAGAAG, the switch fluorescence ratio was found to be 0.981.

For the sequence ACAGTTTTCG, the switch fluorescence ratio stood at 0.98.

For GGCTTAGGAG, the switch fluorescence ratio amounted to 1.03. Take GTATTCGCGC: the switch fluorescence ratio is 0.993. The same measure for TTATATCGAC: 1.1; for TCAGGCCCGC: 1.02. As for ACGAGCTTTC, the switch fluorescence ratio worked out at 1.25.

Regarding TATTGCCTAC, the switch fluorescence ratio is 1.02. For the sequence CATTAGAGT, the switch fluorescence ratio amounted to 1.01. Turning to CAAGAATTGC, the switch fluorescence ratio worked out at 0.996. With CGTGGTCTAG, the switch fluorescence ratio stood at 0.997.

Take CCTCGATGCA: the switch fluorescence ratio was 1.18. Then GCACCCTTGG, with 1.02; and TACTTCTGCT, with 1.03. For GTGGCTCCAC, the switch fluorescence ratio amounted to 1.01. On to CAGCTAGTAA, for which the switch fluorescence ratio amounted to 0.997. Take TAATTTATTC: the switch fluorescence ratio stood at 1.02. Consider CTCGGACATC, for which the switch fluorescence ratio worked out at 1.29. As for GCTAACTGA, the switch fluorescence ratio was 1.1. For TATATGGACA, the switch fluorescence ratio stood at 0.992. Consider CACGATCTGA, for which the switch fluorescence ratio turned out to be 1.01. Consider TTTGAGGTTA, for which the switch fluorescence ratio came to 1.05. Then ACTAGTTTCT, with 0.978.

Turning to CTTATCAAGC, the switch fluorescence ratio was determined as 1.01. For the sequence TTTTGCG, the switch fluorescence ratio was 0.976. For AGGTAATTTC, the switch fluorescence ratio came to 0.987.

On to GATTTATCTA, for which the switch fluorescence ratio amounted to 0.991. TCCTTGTTTG: the switch fluorescence ratio was determined as 1.

For GTACTTATGT, the switch fluorescence ratio amounted to 1.03. ACGTAATATG: the switch fluorescence ratio was found to be 1.28. The same measure for CGGCTAGCCG: 0.988; for TCTGGGTGTC: 1.05; for AATGCGAGCC: 1.06. With ACCAGTCAT, the switch fluorescence ratio worked out at 0.976.

In the case of TTGCGCTTGA, the switch fluorescence ratio stood at 1.06. Take TAGAGGTCGC: the switch fluorescence ratio was 1.03. Turning to CCTGTCCTGC, the switch fluorescence ratio turned out to be 1.07. Consider AGCAGTATGT, for which the switch fluorescence ratio is 0.992. Regarding GCATGGTCTA, the switch fluorescence ratio was found to be 1.03. GGCTTAATAT: the switch fluorescence ratio was 1.02.

For the sequence ATAAAGAAT, the switch fluorescence ratio was determined as 0.987. Turning to TCACGTTTCC, the switch fluorescence ratio came out at 1.13.

GGTGCTCTAT: the switch fluorescence ratio was 1.02. Regarding AGCAAGTGGG, the switch fluorescence ratio was determined as 1.08.

The values above are taken from the supplement of paper PMC10126150.
